{"source": "paper PMC5836133", "note": "The list shows a part of the results. At the low end of the ranking, values are background and their order means little."}
{"tested_on": "T1, GST-NbGlk1(82-244)", "T1 sequence": "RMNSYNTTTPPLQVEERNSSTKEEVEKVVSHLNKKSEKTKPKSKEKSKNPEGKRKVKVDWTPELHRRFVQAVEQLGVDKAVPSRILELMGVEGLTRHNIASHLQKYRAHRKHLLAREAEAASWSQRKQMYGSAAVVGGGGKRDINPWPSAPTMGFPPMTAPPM", "assay": "protein-binding microarray;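 further: rank-based score ranging −0.5 to +0.5 with E above 0.45 taken as significant binding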", "conditions": "NbGlk1 is a Golden2-like transcription factor of Nicotiana benthamiana; high values mean tight binding; most listed sequences are background and not binding sites; double strand, one strand shown", "units": {"binding signal": "E-score"}}
{"sequence": "CAGAACGA", "binding signal": -0.145}
{"sequence": "ACGAGTCT", "binding signal": -0.176}
{"sequence": "AGCAAGCA", "binding signal": -0.161}
{"sequence": "AAACATGT", "binding signal": -0.0778}
{"sequence": "ATTTCTTC", "binding signal": 0.205}
{"sequence": "ACGGAGAA", "binding signal": 0.193}
{"sequence": "AGCTGTCC", "binding signal": -0.157}
{"sequence": "AGCCATGG", "binding signal": -0.235}
{"sequence": "CAGACAGG", "binding signal": -0.212}
{"sequence": "AGAGCATC", "binding signal": -0.0784}
{"sequence": "ACAACGCC", "binding signal": -0.127}
{"sequence": "AAAGGCGG", "binding signal": -0.188}
{"sequence": "AGGGACTG", "binding signal": -0.161}
{"sequence": "AGCGACCG", "binding signal": -0.238}
{"sequence": "CAGACCCG", "binding signal": -0.213}
{"sequence": "AGTTTGAT", "binding signal": 0.123}
{"sequence": "AGGACGCG", "binding signal": -0.179}
{"sequence": "ATAGGTTG", "binding signal": -0.0411}
{"sequence": "CAACCTAC", "binding signal": -0.199}
{"sequence": "ACTCGGCG", "binding signal": -0.149}
{"sequence": "ACAGAGGG", "binding signal": -0.253}
{"sequence": "AGCACAAT", "binding signal": 0.0349}
{"sequence": "ACGGTCCT", "binding signal": -0.3}
{"sequence": "ATGAGTCA", "binding signal": -0.0918}
{"sequence": "ATCCCACA", "binding signal": 0.234}
{"sequence": "CACGGTAG", "binding signal": -0.154}
{"sequence": "AATGGTGT", "binding signal": 0.013}
{"sequence": "ATGGCGGA", "binding signal": -0.126}
{"sequence": "AAACGTCC", "binding signal": -0.17}
{"sequence": "ACCGTTAC", "binding signal": -0.0877}
{"sequence": "AGGGCGCA", "binding signal": -0.191}
{"sequence": "AGATCTAC", "binding signal": 0.347}
{"sequence": "ACTTGGTG", "binding signal": -0.178}
{"sequence": "CACAGTGA", "binding signal": -0.0993}
{"sequence": "AGAACGCG", "binding signal": -0.126}
{"sequence": "AAACATTA", "binding signal": 0.106}
{"sequence": "AGCCAAGC", "binding signal": -0.306}
{"sequence": "ATTAACTC", "binding signal": -0.086}
{"sequence": "AGGCCTTG", "binding signal": -0.129}
{"sequence": "ATTTGAAA", "binding signal": 0.195}
{"sequence": "ATCGCTAG", "binding signal": 0.0832}
{"sequence": "AATCACTA", "binding signal": 0.234}
{"sequence": "ATCTCACC", "binding signal": 0.317}
{"sequence": "AACAGTAG", "binding signal": -0.0728}
{"sequence": "ACTAGGGC", "binding signal": -0.14}
{"sequence": "AGGTAGTA", "binding signal": -0.0212}
{"sequence": "AGTCTTCA", "binding signal": 0.00595}
{"sequence": "CACGGGCC", "binding signal": -0.245}
{"sequence": "CAGCGTCG", "binding signal": -0.121}
{"sequence": "ATCGTGGA", "binding signal": 0.273}
{"sequence": "ATCGGCTG", "binding signal": 0.0677}
{"sequence": "AAACTCGT", "binding signal": 0.00153}
{"sequence": "AAGCAGCC", "binding signal": -0.28}
{"sequence": "AATCACAG", "binding signal": 0.311}
{"sequence": "ATGCGAGG", "binding signal": -0.098}
{"sequence": "ACGCAGCC", "binding signal": -0.228}
{"sequence": "AATTTCAC", "binding signal": 0.193}
{"sequence": "AACGAGGC", "binding signal": -0.117}
{"sequence": "AGACGTGC", "binding signal": -0.198}
{"sequence": "ACGACAAC", "binding signal": 0.0296}
{"sequence": "ACGGGATC", "binding signal": 0.186}
{"sequence": "AGGTCTTG", "binding signal": -0.097}
{"sequence": "CACATGGG", "binding signal": -0.125}
{"sequence": "ATTTCACG", "binding signal": 0.242}
{"sequence": "CAAGCGCG", "binding signal": -0.00733}
{"sequence": "CAGCCCGA", "binding signal": -0.129}
{"sequence": "ATAGGGAT", "binding signal": 0.176}
{"sequence": "AATATCTC", "binding signal": 0.391}
{"sequence": "ACCATTTA", "binding signal": 0.0498}
{"sequence": "CACCACGG", "binding signal": -0.237}
{"sequence": "ATTTTTCG", "binding signal": 0.24}
{"sequence": "AAATCACA", "binding signal": 0.349}
{"sequence": "AAGTGGAT", "binding signal": 0.163}
{"sequence": "AATCCCAA", "binding signal": 0.367}
{"sequence": "AACCGAGA", "binding signal": -0.00988}
{"sequence": "ACTCTACG", "binding signal": -0.137}
{"sequence": "ATACAAAA", "binding signal": 0.251}
{"sequence": "ACGCTAGG", "binding signal": -0.0799}
{"sequence": "ATTGGCTC", "binding signal": -0.234}
{"sequence": "ACCCTCGC", "binding signal": -0.286}
{"sequence": "ACCTAATA", "binding signal": 0.0256}
{"sequence": "AAAGTTCA", "binding signal": -0.0643}
{"sequence": "AAGTTACC", "binding signal": -0.0252}
{"sequence": "ATAGCCTC", "binding signal": 0.0553}
{"sequence": "AAAAAAAC", "binding signal": 0.0722}
{"sequence": "AAGAACTG", "binding signal": -0.0417}
{"sequence": "ACAGAATC", "binding signal": 0.454}
{"sequence": "AATCGACT", "binding signal": 0.263}
{"sequence": "ACGTCATG", "binding signal": -0.0674}
{"sequence": "AGGACTTA", "binding signal": -0.138}
{"sequence": "AGTTAATA", "binding signal": 0.1}
{"sequence": "AGATGCCA", "binding signal": 0.0155}
{"sequence": "CACGTATG", "binding signal": -0.106}
{"sequence": "ATAGGCTA", "binding signal": -0.0147}
{"sequence": "AGTGCCAC", "binding signal": -0.291}
{"sequence": "CAGAATAA", "binding signal": 0.149}
{"sequence": "AGCTGACA", "binding signal": -0.214}
{"sequence": "CACGATGG", "binding signal": -0.0296}
{"sequence": "ACATTTAA", "binding signal": 0.0561}
{"sequence": "AACTGCCG", "binding signal": -0.106}
{"sequence": "AATAGTTG", "binding signal": 0.0542}
{"sequence": "AGGCACTG", "binding signal": -0.303}
{"sequence": "CACTATGG", "binding signal": -0.0907}
{"sequence": "ATGCTCTA", "binding signal": -0.178}
{"sequence": "CAATTGGA", "binding signal": 0.0269}
{"sequence": "ACAAAGCC", "binding signal": -0.0999}
{"sequence": "ACCCGCGC", "binding signal": -0.144}
{"sequence": "ATAGATAT", "binding signal": 0.394}
{"sequence": "AATCTACC", "binding signal": 0.404}
{"sequence": "AAATCATG", "binding signal": 0.332}
